# From PubChem BioAssay AID588855 (National Center for Advancing Translational Sciences (NCATS), 2011)
# Hit rate of the full screen: of about 410,000 compounds, about 5,000 (1.2%) were called active. This list was built around the results that the source calls inconclusive (neither active nor inactive); the mix of calls is not that of the screen. Calls follow the shape of the dose curve; as a rule, active = well fitted inhibition curve with a large enough effect; inconclusive = small, poorly fitted or top-dose-only effect; inactive = no such curve, though single readings can be large or run the other way. Where the call is inconclusive, the potency comes from a doubtful curve fit.
# Assay: qHTS for Inhibitors of TGF-b; also: nearly all actives have a fitted effect of over 65% in size
# Details: HepG2 CAGA-GFP TGF-b/SMAD3 reporter, GFP fluorescence, 18 h, TGF-beta stimulated, 500 pg/mL final; series mostly up to 46.1 µM; activity, negative = inhibition: at the top concentration
# Summary of the method: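 Cell-based qHTS in HEPG2 carrying a CAGA-GFP Smad reporter; compounds added before 500 pg/mL final TGF-beta, 18 h incubation at 37 degrees C, GFP fluorescence quantified per cell by imaging cytometry.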
# % is scaled to controls: 0 for no effect and ±100 for the full control effect; potency is read from the fitted curve at half-maximal effect; tags tell the direction and shape of the fitted curve.
Structure (SMILES),"activity, negative = inhibition",Potency
O=C1NC(=O)C2(Cc3ccccc3N3CCCC32)C(=O)N1c1ccccc1 (configuration not stated),inactive: -0.912%,–
Nc1c(C(=O)Nc2ccc(Cl)c(C(F)(F)F)c2)sc2nc3c(cc12)N1CCC3CC1,–,"inconclusive: 10 µM [inhibitor, partial curve, poor fit]"
COc1cccc(NP(=O)(Oc2ccccc2Cl)Oc2ccccc2Cl)c1,–,"inconclusive: 35.5 µM [inhibitor, single point]"
COc1ccc(-c2ccc3c(c2)CN(C(=O)NC2CCCCC2)Cc2cnnn2-3)cc1,–,"inconclusive: 35.5 µM [inhibitor, partial curve, poor fit]"
COc1ccccc1CNC(=O)CCC(=O)N1C[C@H]2C[C@@H](C1)c1cccc(=O)n1C2,–,"inconclusive: 0.447 µM [inhibitor, full curve]"
COc1ccc(-c2ccc3c(c2)CN(C(=S)NCCc2ccccc2)Cc2cnnn2-3)cc1,–,"inconclusive: 12.6 µM [inhibitor, partial curve, poor fit]"
CC(C)CCP(=O)(O)c1ccccc1,inactive: -4.19%,–
NC(=S)c1cn(C2OC(CO)C(O)C2O)c2ncnc(N)c12 (configuration not stated),–,active: 0.316 µM
C[N+](C)(C)CC1CCCc2ccccc2C1=O (configuration not stated),–,"inconclusive: 35.5 µM [inhibitor, single point]"
C[C@H]1COC2=C1C(=O)C(=O)c1c2ccc2c1CCCC2(C)C,–,active: 4.47 µM
C=C1C(=O)OC2C1CCC(C)C1(O)C=CC(=O)C21C (configuration not stated),–,"inconclusive: 15.8 µM [inhibitor, partial curve, poor fit]"
CCCCCn1c(=O)c(C(=O)Nc2ccccn2)c(O)c2ccccc21,inactive: 13.5%,–
Cc1ccc(-c2cc(-c3ccccc3)cc(-c3ccccc3)[n+]2-c2ccccc2)cc1,–,active: 5.62 µM
O=C(CCCc1ccccc1)NCCc1cnc[nH]1,inactive: 1.28%,–
O=c1c2ccccc2nc2n1CCS2(=O)=O,–,"inconclusive: 35.5 µM [inhibitor, single point]"
Cc1ccc(CN2C(=O)c3ccccc3Sc3ccc(C(=O)N4CCC5(CC4)OCCO5)cc32)cc1,–,"inconclusive: 35.5 µM [inhibitor, single point]"
O=C1NCN(c2ccccc2)C12CCN(C(c1nnnn1C1CCCCC1)C1CC1)CC2 (configuration not stated),–,"inconclusive: 20 µM [inhibitor, partial curve, poor fit]"
CC(NCc1cccc(Cl)c1Cl)C(O)c1ccccc1 (configuration not stated),–,"inconclusive: 35.5 µM [inhibitor, single point]"
Cc1ccc(NC(=O)CN2C(=O)CN=C(c3ccccc3)c3ccccc32)cc1,inactive: 0%,–
COC(=O)C1=C(c2ccc(OCc3ccccc3)cc2)C[C@@H]2CC[C@H]1N2C(=O)NCc1ccccc1OC,–,"inconclusive: 20 µM [inhibitor, single point]"
CN(C)S(=O)(=O)c1ccc(C(=O)NCCSc2c(-c3ccccc3)[nH]c3ccccc23)cc1,–,"inconclusive: 8.91 µM [inhibitor, partial curve, poor fit]"

Structure (SMILES),"activity, negative = inhibition",Potency
Cc1ccccc1-n1nc(C)c2c1NC(=O)CSC2c1ccc(N(C)C)cc1 (configuration not stated),–,"inconclusive: 35.5 µM [inhibitor, partial curve, poor fit]"
NNc1n[nH]c(=S)n1N,–,"inconclusive: 35.5 µM [inhibitor, single point]"
COC1=C(C)C(=O)O[C@]12C(=O)C(C)=C1CCCCN3[C@H]([C@@H]4C[C@H](C)C(=O)O4)CC[C@]132,–,"inconclusive: 10 µM [inhibitor, partial curve, poor fit]"
COc1ccc(-n2c(-c3ccco3)nc3c(cnn3-c3ccc(Cl)cc3)c2=O)cc1,–,"inconclusive: 3.55 µM [inhibitor, full curve, poor fit]"
CCOC(=O)C(NC(=O)CCl)(Nc1ccc(C(O)(C(=O)OCC)C(F)(F)F)cc1)C(F)(F)F (configuration not stated),inactive: -8.44%,–
COC(=O)C1=C(c2ccc(F)cc2OCc2ccccc2)C[C@@H]2CC[C@H]1N2C(=O)NCCc1ccc(F)cc1,–,"inconclusive: 25.1 µM [inhibitor, single point]"
COC(=O)C1=C(c2ccc(F)cc2OCc2ccccc2)C[C@@H]2CC[C@H]1N2C(=O)NCc1ccc(OC)cc1,inactive: 9.72%,–
CCCCc1nn2c(=O)cc(COC(=O)Cc3ccccc3)nc2s1,–,"inconclusive: 3.16 µM [inhibitor, single point]"
C[C@]12CCC3C(CC[C@@H]4C[C@H](O)CC[C@]34C)C1CCC2=O (some centres not stated),inactive: -16.3%,–
O=[N+]([O-])c1cc(S(=O)(=O)/N=C(/c2ccccc2)N2CCOCC2)ccc1Cl,–,"inconclusive: 20 µM [inhibitor, partial curve, poor fit]"
C[C@]12CC[C@H](O)CC1=CCC1C2CC[C@@]2(C)C1C[C@@H](O)[C@@H]2O (some centres not stated),inactive: 13%,–
O[C@H]1C2CCC1C(N1CCCCC1)CC2 (some centres not stated),inactive: 0.336%,–
C=CCn1c(O)c(C(CC)=NCCCO)c(=O)[nH]c1=O,inactive: -0.684%,–
Cc1ccc(NC(=O)C2CCCN(C(=O)c3cnn(-c4ccccc4)c3-n3cccc3)C2)cc1 (configuration not stated),–,"inconclusive: 2.51 µM [inhibitor, partial curve, poor fit]"
CC(=NCCCn1ccnc1)c1c(O)n(C2CCCCC2)c(=O)[nH]c1=O,inactive: -16.3%,–
COc1cc2c(cc1OC)-c1c(OC)c(OC)cc3c1C(C2)N(C)CC3 (configuration not stated),inactive: 23.5%,–
COc1ccc(/C=C2\C(=O)NC(=O)N(CCC3=CCCCC3)C2=O)c(OC)c1,–,"inconclusive: 35.5 µM [inhibitor, single point]"
C[C@@H]1CN([C@@H](C)CO)C(=O)c2c(c3ccccc3n2C)-c2ccccc2CO[C@H]1CN(C)C(=O)[C@H](C)c1ccccc1,–,"inconclusive: 22.4 µM [inhibitor, single point]"
COc1ccc(OC(=O)N(C)C)c(CN(C)C)c1,–,"inconclusive: 35.5 µM [inhibitor, single point]"
O=C(O)C1(Br)CC12c1ccccc1-c1ccccc12 (configuration not stated),–,"inconclusive: 35.5 µM [inhibitor, single point]"
O=C(Nc1ccc(Cl)c(Cl)c1)O/N=C/c1ccncc1,–,"inconclusive: 22.4 µM [inhibitor, single point]"
